# Reference: PMC4336329 (PLoS ONE, 2015)
# The whole screen tested about 310,000 compounds, of which about 2,200 (0.71%) showed an effect of 50% or more. The effect is printed as a negative number. The list shows a part of the results.
# Target: human ether-à-go-go-related gene (hERG) potassium channel (human, UniProt Q12809)
# Assay: primary screen, population patch clamp on CHO cells stably expressing hERG
# Sequence of human ether-à-go-go-related gene (hERG) potassium channel (Q12809 whole entry, looked up): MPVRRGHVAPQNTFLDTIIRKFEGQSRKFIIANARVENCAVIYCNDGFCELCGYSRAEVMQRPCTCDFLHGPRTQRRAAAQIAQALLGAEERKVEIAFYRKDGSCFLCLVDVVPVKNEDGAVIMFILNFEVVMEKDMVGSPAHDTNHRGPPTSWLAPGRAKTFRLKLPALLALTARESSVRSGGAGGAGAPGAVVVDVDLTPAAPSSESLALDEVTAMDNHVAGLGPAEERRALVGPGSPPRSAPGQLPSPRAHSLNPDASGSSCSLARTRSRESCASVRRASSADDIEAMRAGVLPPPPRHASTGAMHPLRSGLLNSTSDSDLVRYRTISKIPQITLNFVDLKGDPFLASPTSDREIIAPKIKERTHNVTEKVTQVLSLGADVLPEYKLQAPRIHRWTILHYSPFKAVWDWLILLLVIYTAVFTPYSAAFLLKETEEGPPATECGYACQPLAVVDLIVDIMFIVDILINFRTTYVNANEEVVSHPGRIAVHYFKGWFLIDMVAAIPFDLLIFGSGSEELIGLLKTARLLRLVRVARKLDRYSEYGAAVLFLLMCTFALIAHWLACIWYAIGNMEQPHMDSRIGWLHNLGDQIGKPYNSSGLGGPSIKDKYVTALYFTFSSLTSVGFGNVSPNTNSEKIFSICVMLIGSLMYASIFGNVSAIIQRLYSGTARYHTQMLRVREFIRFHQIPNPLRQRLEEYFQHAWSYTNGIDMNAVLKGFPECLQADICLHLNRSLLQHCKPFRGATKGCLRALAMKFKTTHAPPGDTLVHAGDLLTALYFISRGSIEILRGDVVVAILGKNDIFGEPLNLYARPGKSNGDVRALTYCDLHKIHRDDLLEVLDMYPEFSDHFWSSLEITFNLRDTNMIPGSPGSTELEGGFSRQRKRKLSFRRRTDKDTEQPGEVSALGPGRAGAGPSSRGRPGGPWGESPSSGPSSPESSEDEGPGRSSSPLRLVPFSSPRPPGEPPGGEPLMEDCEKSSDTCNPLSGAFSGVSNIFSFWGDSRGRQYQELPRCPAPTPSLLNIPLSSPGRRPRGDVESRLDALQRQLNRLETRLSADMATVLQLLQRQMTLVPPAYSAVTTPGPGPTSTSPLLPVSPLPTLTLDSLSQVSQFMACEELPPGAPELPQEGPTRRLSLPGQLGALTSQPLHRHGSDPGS
row,SMILES,"hERG current change (%, negative = inhibition) at 1uM"
1,O=C(CSc1c2c(nc3cc(Cl)ccc13)CCCC2)NCc1ccco1,0.391%
2,COc1ccc(-c2nn(-c3ccccc3)cc2C#N)cc1,-2.97%
3,COc1ccc(-n2nc(C(=O)NCC(=O)NC(C)C)c3ccccc3c2=O)cc1,12.4%
4,Cn1c2ccccc2c2cc(/C=C(\NC(=O)c3ccccc3)C(=O)NCC(=O)O)ccc21,2.26%
5,CC1(c2nnc(-c3ccncc3)o2)CC(c2cccc(Cl)c2)=NO1 (stereo not shown),13.4%
6,CC1CC(C)CN(C(=O)Cn2c(=O)n(CCCC(=O)NCc3ccco3)c(=O)c3sccc32)C1 (stereo not shown),10.4%
7,Cn1ncc(Cl)c1C(=O)N1CCCc2ccccc21,6.48%
8,C[C@]12CC[C@@H]3c4ccc(OC(=O)c5ccccc5)cc4CC[C@H]3[C@@H]1CC[C@@H]2O,11.9%
9,O=C(Cc1ccc(F)cc1)Oc1ccc(C(=S)N2CCCC2)cc1,10.5%
10,COc1ccccc1N1CCC(N2CCN(CC(C)(C)C)C(CCO)C2)CC1 (stereo not shown),10.2%
11,CC1CCN(C(c2ccccc2)c2nnnn2C(C)(C)C)CC1.Cl (stereo not shown),2.48%
12,O=C1c2ccccc2C(=O)N1CCc1nc(-c2ccccn2)no1,0.867%
13,COC(=O)c1ccc(C(=O)OC)c(NC(=O)N2c3ccccc3Sc3ccccc32)c1,11.7%
14,CC(C)(C)n1cnc2cc(NS(=O)(=O)c3ccc(Br)cc3)ccc21,6.5%
15,O=C(NCc1ccc(F)cc1)c1ccc(NC(=O)C2CCCO2)cc1 (stereo not shown),10.4%
16,CC[n+]1ccc(C(=O)NCc2ccccc2)cc1.[Cl-],12.3%
17,Cn1cc(CNC(=O)c2cc(-c3ccc(Br)cc3)nc3ccccc23)cn1,8.83%
18,O=C(OCC(F)(F)C(F)F)c1ccccc1C(=O)Oc1ccc(F)cc1F,18.7%
19,Cn1ccnc1CN1CCCCC1C(=O)Nc1ccc(Oc2cccnc2)cc1 (stereo not shown),7.33%
20,CC(NC(=O)C(=O)NCCN1CCN(C(=O)c2ccccc2Br)CC1)c1ccccc1 (stereo not shown),9.08%
21,O=C(NCCCn1ccnc1)c1cccc(S(=O)(=O)Nc2ccccc2F)c1,20.5%
22,CC(C(=O)Nc1ncn[nH]1)N1C(=O)c2ccccc2C1=O (stereo not shown),15.1%

row,SMILES,"hERG current change (%, negative = inhibition) at 1uM"
1,Cn1c(N)c(N=Nc2ccc(S(N)(=O)=O)cc2)c(=O)n(C)c1=O,16.5%
2,CSc1ncccc1C(=O)OCC(=O)NC(C)C,-1.86%
3,COc1cccc(-c2nc3ccc(O)cc3c(=O)o2)c1,7.85%
4,CCN(C(=O)CSc1nnc(Nc2ccccc2C)s1)C1CCS(=O)(=O)C1 (stereo not shown),4.78%
5,O=C(NCc1ccccc1)C1COc2ccccc2O1 (stereo not shown),5.4%
6,Cc1ccc(C(=O)OCCN2CCN(c3ncc(C(F)(F)F)cc3Cl)CC2)cc1,12.6%
7,CC(C)C[C@@]12C(=O)N(c3cccc(F)c3)C(=O)N1[C@H](c1ccc(Br)cc1)[C@@H]1C(=O)N(C(C)(C)C)C(=O)[C@@H]12,12.2%
8,CCOC(=O)COc1cccc2c(=O)n(CC(=O)N3CCN(C(=O)OCC)CC3)ccc12,7.52%
9,CCCCCn1cc(C(=O)C(=O)N2CCOCC2)c2ccccc21,7.53%
10,CC(/C=C/c1ccccc1)=N/NC(=O)CNC(=O)c1ccccc1F,6.33%
11,CCN(CC(=O)NC1CCS(=O)(=O)C1)S(=O)(=O)c1ccc(Cl)cc1C(F)(F)F (stereo not shown),0.233%
12,Cc1nnc(SC(C)C(=O)Nc2sc3c(c2C#N)CCCC3)[nH]c1=O (stereo not shown),7.88%
13,CCN(CC)CCCNC(=O)C1CCN(C(=O)c2cc3sccc3n2Cc2ccc(F)cc2)CC1,11.4%
14,COc1ccc(-c2nnc3sc(CN4C(=O)c5ccccc5C4=O)nn23)cc1,14.7%
15,CC(=O)c1ccc(C(=O)N2CCCC(CCC(=O)N(C)CCc3ccccn3)C2)s1 (stereo not shown),5.7%
16,O=C(NCC1CCCO1)C1CCN(CC2CCCCC2)CC1 (stereo not shown),5.67%
17,CSCCC(NC(=O)COc1ccccc1)C(=O)NCCOc1ccc(C)cc1 (stereo not shown),3.41%
18,CN1CCN(c2nc3ccccc3c(=O)n2-c2ccccc2)CC1,4.87%
19,Cc1ccc(CN2CCN(Cc3nc4ccccc4nc3C)CC2CCO)cc1 (stereo not shown),-65.3%
20,CN(C)/C=C(\C(=O)c1ccc(Cl)cc1)c1nnnn1-c1ccc(Cl)cc1,7.83%
21,COc1ccc(NS(=O)(=O)c2cc(NC(=O)c3cnccn3)ccc2OC)cc1Br,15.6%
22,CC(=O)c1ccc(/C=C/c2nc3ccccc3n2C)o1,10.2%

row,SMILES,"hERG current change (%, negative = inhibition) at 1uM"
1,COc1ccc(NC(=O)C(c2cc3c(cc2[N+](=O)[O-])OCO3)N2CCN(C=O)CC2)cc1 (stereo not shown),-27.8%
2,O=C1CCCN1CC(O)CS(=O)(=O)Cc1ccc(Cl)cc1 (stereo not shown),10.2%
3,O=C(N/N=C\c1ccccc1OCc1ccccc1)c1ccco1,20.1%
4,COc1ccc(S(=O)(=O)NCC2CCCN(Cc3cn(C)nc3C)C2)cc1 (stereo not shown),15%
5,C(=N\N1CCOCC1)/c1cn(-c2ccccc2)nc1-c1ccccc1,2.98%
6,CCc1cccc(NC(=O)C2CCCN(S(=O)(=O)c3cccnc3)C2)c1 (stereo not shown),11.1%
7,CC(=O)/C=C\c1cn(-c2ncc(C(F)(F)F)cc2Cl)c2ccccc12,16%
8,COCC(=O)N1CCCC(C(=O)c2ccc(Oc3ccccc3)cc2)C1 (stereo not shown),-16.6%
9,Cc1cccc(CN2CCN(c3nc4nonc4nc3NC3CC3)CC2=O)c1,10%
10,COC(=O)c1ccc(CN2CCCC(CCC(=O)NCc3ccc(C)o3)C2)cc1 (stereo not shown),-20.1%
11,Cc1nnc(SC(C(=O)c2ccccc2)c2ccccc2)[nH]c1=O (stereo not shown),11.1%
12,Cc1nnc(-c2cnn(C)c2N)n1Cc1cccc(Cl)c1,15.2%
13,COc1ccc(CCN(C(=O)C(F)(F)F)C(C(=O)NC2CCCC2)c2cccs2)cc1OC (stereo not shown),9.48%
14,O=C(NN=C1c2ccccc2-c2ccccc21)c1ccccn1,7.79%
15,COc1ccc(NC(=O)CSc2nc3c(c(=O)n2C)SCC3)cc1OC,-1.01%
16,COc1ccc(-c2nc(N)ncc2-c2ccccc2)c(O)c1,2.6%
17,CCn1c(C)nnc1SCC(=O)Nc1nccs1,11.8%
18,CC(=O)C1=C(C)NC(SCc2cccc3ccccc23)=C(C#N)C1c1ccco1 (stereo not shown),0.669%
19,O=C(N/N=C/c1ccc2ccccc2c1)c1ccc(COc2ccc3c(c2)CCC3)o1,5.8%
20,O=C(OCc1nc2ccccc2s1)c1ccc(Br)s1,18.6%
21,Cc1ccc(N(C(=O)Cc2cccs2)C(C(=O)NC2CCCC2)c2ccncc2)cc1 (stereo not shown),10.2%
22,CS(=O)(=O)N(CC(=O)N1CCc2ccccc2C1)c1ccc2c(c1)OCO2,2.09%

row,SMILES,"hERG current change (%, negative = inhibition) at 1uM"
1,O=c1[nH]c2ccc(NCc3ccc(F)cc3)cc2[nH]1,11.1%
2,CCCC(=O)Nc1nc(-c2ccc3c(c2)OCCO3)cs1,2.27%
3,CCn1cc(CN2CCC(C(=O)Nc3cccc(-c4cscn4)c3)CC2)cn1,6.14%
4,O=C(CCCSc1nc(-c2ccco2)cc(C(F)(F)F)n1)NCC1CCCO1 (stereo not shown),5.5%
5,O=C(CSc1nnc(COc2ccc(Cl)cc2)o1)NC1CCCCC1,-2.69%
6,O=c1[nH]c(=O)n(-c2ccc(F)cc2)c(O)c1C=Nc1ccccc1N1CCCC1,3.66%
7,Cc1cc(C)c(C#N)c(Cl)n1,-4.32%
8,COc1ccccc1/C=C/C(=O)OCC(=O)N1c2ccccc2CC1C (stereo not shown),5.76%
9,COc1ccc(CCNC(=O)C(=O)NCC2OCCN2S(=O)(=O)c2ccc3c(c2)OCCO3)cc1 (stereo not shown),11.7%
10,O=C(Nc1cccc([N+](=O)[O-])c1)c1cccc(C(=O)Nc2cccc([N+](=O)[O-])c2)c1,20.8%
11,CCC(=O)c1ccc(N2CCN(C(=O)COc3ccc(F)cc3)CC2)c(F)c1,-71.3%
12,CC1(C)CC(=O)C2=C(C1)N(Cc1cccnc1)C(=O)C2(NC(=O)c1ccc(F)cc1)C(F)(F)F (stereo not shown),-13.2%
13,COCCNC(=O)/C(C#N)=C/c1c(N2CCN(c3ccccc3)CC2)nc2c(C)cccn2c1=O,14.3%
14,CC(C)OC(=O)c1cc(NC(=O)C2C3C=CC(O3)C2C(=O)O)cc(C(=O)OC(C)C)c1 (stereo not shown),3.7%
15,COc1cccc(-c2cc3c(=O)n(-c4ccccc4)c(=S)[nH]c3s2)c1,11.8%
16,CCn1ncc(Br)c1C(=O)Nc1cc(C)ccc1F,8.55%
17,COc1ccc(C(=O)C[n+]2ccc3c(c2)nc(-c2ccccc2)n3C)cc1.[Br-],-0.564%
18,Cc1ccc(C)c2sc(NC(=O)c3ccc(N4C(=O)CCC4=O)cc3)nc12,-0.478%
19,Cc1nc(N2CCOCC2)nc(OC(C)C)c1[N+](=O)[O-],6.71%
